Source: the supplement of paper PMC4967469
pIC50: −log10 of the molar value. IC50 is the fitted dose that halves viability relative to control wells, and lower means more sensitive; a limit (>, <) means that the fit lies beyond the doses tested. AUC sums up the same curve from the lowest dose to the 256-fold higher top dose; it is 1 without any effect and falls as sensitivity rises. An inferred top dose was calculated from the reported fits.

What was measured:
Test in all cases: Viability of human cancer cell lines after 72 h of drug (GDSC screen)
[1] = compound: Cn1cncc1[C@@](N)(c1ccc(Cl)cc1)c1ccc2c(c1)c(-c1cccc(Cl)c1)cc(=O)n2C [Tipifarnib]; conditions: top dose 16 µM; top dose inferred
Procedure: (§1)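 Human cancer cell lines in 384-well plates, medium with 10% serum, drug for 72 h over a 256-fold dose range (nine 2-fold or five 4-fold steps up to the top dose). Adherent lines were fixed and stained with the nucleic acid dye Syto60, suspension lines read with resazurin; signal relative to control wells, capped at 0 and 100%. One two-parameter sigmoid per drug and line, fitted in a mixed model over all curves with the slope shared within a line.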

[2] = compound: COc1ccccc1S(=O)(=O)Nc1ccc2c(c1)CN(C)C(=O)N2 [PFI-1]; conditions: top dose 10 µM; top dose inferred
Procedure: as §1

[3] = compound: COc1cc(C)c(Sc2cnc(NC(=O)c3ccc(CNC(C)C(C)(C)C)cc3)s2)cc1C(=O)N1CCN(C(C)=O)CC1 [BMS-509744]; conditions: top dose 10.24 µM; top dose inferred
Procedure: as §1

[4] = compound: CCN1CCN(Cc2ccc(NC(=O)c3ccc(C)c(Oc4ccnc5[nH]ccc45)c3)cc2C(F)(F)F)CC1 [NG-25]; conditions: top dose 10.24 µM; top dose inferred
Procedure: as §1

[5] = compound: CCc1cc(Nc2nccc(-c3c(-c4ccc(OC)c(C(=O)Nc5c(F)cccc5F)c4)nc4ccccn34)n2)c(OC)cc1N1CCC(N2CCN(S(C)(=O)=O)CC2)CC1 [GSK-1904529A]; conditions: top dose 1.024 µM; top dose inferred
Procedure: as §1

Cell Line | AUC [1] | pIC50 [1] | AUC [2] | pIC50 [2] | AUC [3] | pIC50 [3] | AUC [4] | pIC50 [4] | AUC [5] | pIC50 [5]
LU-139 (small cell lung carcinoma, suspension) | 0.897 | < 4.80 | 0.892 | < 5.00 | 0.938 | < 4.99 | 0.78 | 5.26 | 0.97 | < 5.99
LU-134-A (small cell lung carcinoma, suspension) | 0.952 | < 4.80 | 0.874 | < 5.00 | 0.889 | < 4.99 | 0.904 | < 4.99 | 0.982 | < 5.99
PF-382 (T-cell lymphoblastic leukaemia, suspension) | 0.592 | – | 0.945 | < 5.00 | 0.942 | < 4.99 | 0.669 | 5.75 | 0.991 | < 5.99
IA-LM (large cell lung carcinoma, adherent) | 0.226 | 6.85 | 0.845 | 5.07 | 0.806 | 5.22 | 0.951 | < 4.99 | 0.981 | < 5.99
RPMI-8866 (chronic myeloid leukaemia, suspension) | 0.92 | < 4.80 | 0.709 | 5.63 | 0.978 | < 4.99 | 0.578 | 5.99 | 0.987 | < 5.99
KGN (ovary, adherent) | 0.317 | 6.56 | 0.768 | 5.34 | 0.824 | 5.10 | 0.848 | 4.99 | 0.969 | < 5.99
SU-DHL-4 (B-cell lymphoma, suspension) | 0.898 | 5.00 | 0.997 | < 5.00 | 0.975 | < 4.99 | 0.578 | 6.01 | 0.997 | < 5.99
ONS-76 (medulloblastoma, adherent) | 0.545 | 5.87 | 0.912 | < 5.00 | 0.939 | < 4.99 | 0.964 | < 4.99 | 0.981 | < 5.99
D-502MG (glioma, adherent) | 0.926 | < 4.80 | 0.911 | < 5.00 | 0.971 | < 4.99 | 0.846 | < 4.99 | 0.917 | < 5.99
KARPAS-299 (anaplastic large cell lymphoma, suspension) | 0.97 | < 4.80 | 0.912 | < 5.00 | 0.953 | < 4.99 | 0.878 | 5.13 | 0.992 | < 5.99
HH (T-cell leukaemia, suspension) | 0.386 | 6.36 | 0.573 | 5.97 | 0.886 | < 4.99 | 0.631 | 5.78 | 0.955 | < 5.99
PSN1 (pancreas, adherent) | 0.452 | 6.12 | 0.955 | < 5.00 | 0.736 | 5.58 | 0.884 | 5.09 | 0.99 | < 5.99
EW-13 (Ewing sarcoma, suspension) | 0.666 | 5.51 | 0.978 | < 5.00 | 0.901 | < 4.99 | 0.406 | 6.47 | 0.983 | < 5.99
HDLM-2 (Hodgkin lymphoma, suspension) | 0.888 | < 4.80 | 0.909 | < 5.00 | 0.956 | < 4.99 | 0.989 | < 4.99 | 0.987 | < 5.99
NCI-H82 (small cell lung carcinoma, suspension) | 0.835 | 5.01 | 0.98 | < 5.00 | 0.941 | < 4.99 | 0.929 | < 4.99 | 0.988 | < 5.99
MS-1 (small cell lung carcinoma, suspension) | 0.807 | 5.14 | 0.962 | < 5.00 | 0.871 | 5.10 | 0.841 | 5.22 | 0.979 | < 5.99
NCI-H226 (lung squamous cell carcinoma, adherent) | 0.829 | 4.97 | 0.88 | < 5.00 | 0.96 | < 4.99 | 0.91 | < 4.99 | 0.986 | < 5.99
JJN-3 (haematopoietic neoplasm, suspension) | 0.783 | 5.26 | 0.808 | 5.39 | 0.947 | < 4.99 | 0.873 | 5.16 | 0.988 | < 5.99
CGTH-W-1 (thyroid, adherent) | 0.684 | 5.49 | 0.843 | 5.15 | 0.969 | < 4.99 | 0.817 | 5.25 | 0.985 | < 5.99
TE-15 (oesophagus, suspension) | 0.373 | 6.37 | 0.982 | < 5.00 | 0.88 | < 4.99 | 0.774 | 5.34 | 0.981 | < 5.99

Cell Line | AUC [1] | pIC50 [1] | AUC [2] | pIC50 [2] | AUC [3] | pIC50 [3] | AUC [4] | pIC50 [4] | AUC [5] | pIC50 [5]
NB69 (neuroblastoma, adherent) | 0.916 | < 4.80 | 0.667 | 5.76 | 0.814 | 5.32 | 0.806 | 5.35 | 0.988 | < 5.99
ES3 (Ewing sarcoma, adherent) | 0.785 | 5.14 | 0.745 | 5.48 | 0.849 | 5.08 | 0.906 | < 4.99 | 0.935 | < 5.99
TK10 (kidney, adherent) | 0.721 | 5.31 | 0.879 | < 5.00 | 0.928 | < 4.99 | 0.74 | 5.44 | 0.974 | < 5.99
SBC-1 (small cell lung carcinoma, suspension) | 0.823 | 5.05 | 0.74 | 5.53 | 0.973 | < 4.99 | 0.969 | < 4.99 | 0.971 | < 5.99
NCI-H2135 (non-small cell lung carcinoma, adherent) | 0.737 | 5.33 | 0.99 | < 5.00 | 0.963 | < 4.99 | 0.826 | 5.22 | 0.991 | < 5.99
NB1 (neuroblastoma, semi-adherent) | 0.873 | < 4.80 | 0.945 | < 5.00 | 0.914 | < 4.99 | 0.752 | 5.43 | 0.975 | < 5.99
NCI-H2141 (small cell lung carcinoma, suspension) | 0.955 | < 4.80 | 0.99 | < 5.00 | 0.927 | < 4.99 | 0.924 | < 4.99 | 0.988 | < 5.99
SF539 (glioma, adherent) | 0.895 | < 4.80 | 0.859 | 5.15 | 0.983 | < 4.99 | 0.858 | 5.15 | 0.989 | < 5.99
SUP-T1 (T-cell lymphoblastic leukaemia, suspension) | 0.479 | 6.05 | 0.92 | < 5.00 | 0.836 | 5.23 | 0.758 | 5.49 | 0.987 | < 5.99
LAMA-84 (chronic myeloid leukaemia, suspension) | 0.739 | 5.31 | 0.977 | < 5.00 | 0.878 | < 4.99 | 0.035 | > 7.40 | 0.985 | < 5.99
LAN-6 (neuroblastoma, adherent) | 0.881 | < 4.80 | 0.96 | < 5.00 | 0.817 | 5.15 | 0.895 | < 4.99 | 0.969 | < 5.99
JVM-2 (lymphoid neoplasm, suspension) | 0.883 | < 4.80 | 0.699 | 5.59 | 0.946 | < 4.99 | 0.78 | 5.28 | 0.981 | < 5.99
OS-RC-2 (kidney, adherent) | 0.759 | 5.09 | 0.972 | < 5.00 | 0.805 | 5.09 | 0.804 | 5.09 | 0.953 | < 5.99
K5 (thyroid, adherent) | 0.821 | 5.06 | 0.85 | 5.15 | 0.969 | < 4.99 | 0.875 | 5.03 | 0.982 | < 5.99
DU-4475 (breast, suspension) | 0.62 | 5.70 | 0.956 | < 5.00 | 0.946 | < 4.99 | 0.89 | 5.10 | 0.989 | < 5.99
HCE-4 (oesophagus, adherent) | 0.642 | 5.64 | 0.971 | < 5.00 | 0.934 | < 4.99 | 0.991 | < 4.99 | 0.909 | < 5.99
OMC-1 (cervix, adherent) | 0.768 | 5.20 | 0.905 | < 5.00 | 0.986 | < 4.99 | 0.972 | < 4.99 | 0.971 | < 5.99
P31-FUJ (acute myeloid leukaemia, suspension) | 0.996 | < 4.80 | 0.796 | 5.46 | 0.991 | < 4.99 | 0.993 | < 4.99 | 0.996 | < 5.99
CPC-N (small cell lung carcinoma, suspension) | 0.797 | 5.08 | 0.843 | 5.09 | 0.915 | < 4.99 | 0.923 | < 4.99 | 0.967 | < 5.99
